# In PubChem BioAssay AID588342 (National Center for Advancing Translational Sciences (NCATS), 2011):
# In all, about 360,000 compounds went through this assay and about 25,000 (6.9%) were called active. The inconclusive results got no clear call from the source; some entries with a clear call stand among them for comparison. Calls follow the shape of the dose curve; as a rule, active = well fitted inhibition curve with a large enough effect; inconclusive = small, poorly fitted or top-dose-only effect; inactive = flat fitted curve, though single readings scatter. A potency beside an inconclusive call is a rough fit, not a confirmed value.
# Biological target: Luciferin 4-monooxygenase (Photinus pyralis) (UniProt P08659)
# Test: qHTS profiling assay for firefly luciferase inhibitor/activator using purifed enzyme and Km concentrations of substrates (counterscreen for miR-21 project); also: nearly all actives have a fitted effect of over 55% in size;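 as to activity change, negative = inhibition: plate controls were vehicle for no effect and reference inhibitor for full effect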
# Conditions: purified FLuc, luminescence inhibition; series mostly up to 57.5 µM; activity change, negative = inhibition: at the top concentration
# Summary of the method: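 Biochemical qHTS of compounds, final roughly 60 µM downward over six points, against 10 nM purified firefly luciferase using Km concentrations of substrates (10 uM D-luciferin, 10 uM ATP) in Tris acetate pH 7.5 buffer; luminescence output.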
# Potency is read from the fitted curve at half-maximal effect; tags tell the direction and shape of the fitted curve.
# Sequence of UniProt P08659 (P08659 whole entry, looked up): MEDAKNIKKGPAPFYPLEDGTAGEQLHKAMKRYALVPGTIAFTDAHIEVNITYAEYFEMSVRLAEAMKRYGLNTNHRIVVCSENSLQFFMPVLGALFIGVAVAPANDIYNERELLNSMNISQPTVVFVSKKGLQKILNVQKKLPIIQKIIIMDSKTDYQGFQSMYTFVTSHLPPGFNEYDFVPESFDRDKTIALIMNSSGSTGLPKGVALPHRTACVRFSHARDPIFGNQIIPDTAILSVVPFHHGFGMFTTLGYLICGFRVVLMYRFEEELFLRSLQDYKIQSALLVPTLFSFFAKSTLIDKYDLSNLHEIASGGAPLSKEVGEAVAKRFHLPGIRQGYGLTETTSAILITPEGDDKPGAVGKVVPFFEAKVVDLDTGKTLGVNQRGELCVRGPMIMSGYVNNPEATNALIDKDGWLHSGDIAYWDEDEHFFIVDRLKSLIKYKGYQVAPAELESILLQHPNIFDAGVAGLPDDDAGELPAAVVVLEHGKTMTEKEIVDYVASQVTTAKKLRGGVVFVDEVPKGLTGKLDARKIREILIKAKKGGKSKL
Structure (SMILES),"activity change, negative = inhibition",Potency
CCOC(=O)Cc1csc(SCC(=O)c2c(N)n(CC(C)C)c(=O)n(C)c2=O)n1,inactive: 2.86%,–
C/C(=N\NC(=O)COc1ccccc1)c1cccs1,–,"inconclusive: 26.9 µM [inhibitor, single point]"
CSc1nc(-c2ccc(Cl)cc2)nn1S(=O)(=O)c1ccccc1,–,active: 13.5 µM
Cc1nc(-c2ccc(Cl)cc2)sc1C1(C)CC(c2ccc(OC(F)(F)F)cc2)=NO1 (configuration not stated),–,"inconclusive: 23.9 µM [inhibitor, single point]"
CCSc1nnc(-c2ccc(S(=O)(=O)N3CCOCC3)cc2)n1CC1CCCO1 (configuration not stated),–,"inconclusive: 37.9 µM [inhibitor, partial curve, poor fit]"
Cc1cccc(C(=O)Nc2ccccc2C(=O)OCC(=O)Nc2ccc(C#N)cc2)c1,–,"inconclusive: 6.75 µM [inhibitor, partial curve, poor fit]"
COCCN(C(=O)CSc1nnc(-c2ccc(C)c(C)c2)o1)c1c(N)n(CC(C)C)c(=O)[nH]c1=O,–,"inconclusive: 26.9 µM [inhibitor, single point]"
Cc1cccc(NC(=O)c2ccc(Cl)c(S(=O)(=O)N3CCCC3)c2)n1,–,"inconclusive: 21.3 µM [inhibitor, single point]"
CCCCNC(=O)c1cc2cc(OC)ccc2[nH]1,–,"inconclusive: 16.9 µM [inhibitor, partial curve]"
O=C(N/N=C/c1ccccn1)c1ccc(Br)cc1,–,active: 10.7 µM
Nc1ccc(/C=C/C(=O)c2ccco2)cc1,–,active: 6.01 µM
O=C(O)CCC(=O)Nc1cccc(C(=O)Nc2cccc(Cl)c2)c1,–,"inconclusive: 37.9 µM [inhibitor, partial curve, poor fit]"
NNC(=O)c1oc2nc(-c3cccs3)cc(-c3ccco3)c2c1N,inactive: -1.62%,–
O=C(Nc1ccc(N2CCN(c3ccc(F)cc3)CC2)c(C(=O)O)c1)c1ccccc1F,inactive: -2.61%,–
COc1ccc2cc(C)c3nnc(SCC(=O)Nc4cc(OC)c(OC)cc4C(=O)O)n3c2c1,–,"inconclusive: 37.9 µM [inhibitor, partial curve, poor fit]"
CC(=O)N(C)c1ccc(OCC(O)COc2ccc(N(C)C(C)=O)cc2)cc1,–,"inconclusive: 19 µM [inhibitor, partial curve]"
C=CCn1c(=O)c2ccccc2n2c(SCC(=O)c3ccccc3)nnc12,–,"inconclusive: 23.9 µM [inhibitor, partial curve, poor fit]"
CCOc1cc(/C=C/c2nc3cc(C)c(C)cc3s2)ccc1OCC(=O)N1CCOCC1,–,"inconclusive: 9.53 µM [inhibitor, single point]"
COc1ccc(CNC(=O)CSc2ncn[nH]2)cc1OC,inactive: -0.0068%,–
Cc1ccc(Cc2nc3ccccc3nc2SCC(=O)NCc2ccc(F)cc2)cc1,inactive: 2.39%,–
CC(=O)N1CCN(C(=O)CCc2cc(C(C)(C)C)c(O)c(C(C)(C)C)c2)CC1,–,"inconclusive: 21.3 µM [inhibitor, partial curve]"
CCc1ccccc1OCC(=O)Nc1cc(S(=O)(=O)N(CC)CC)ccc1N1CCOCC1,inactive: 6.87%,–
O=C(O)CCCc1nc(-c2ccccc2)no1,–,"inconclusive: 30.1 µM [inhibitor, partial curve, poor fit]"
COc1ccc(C2C(=O)c3ccccc3C2=O)cc1,–,active: 5.36 µM

Structure (SMILES),"activity change, negative = inhibition",Potency
Cc1ccc(-n2ncc3c(N4CCN(CCO)CC4)ncnc32)cc1Cl,–,"inconclusive: 21.3 µM [inhibitor, partial curve]"
CNC(=O)c1sc(Nc2ccc(OCc3ccccc3)cc2)nc1C,–,"inconclusive: 23.9 µM [inhibitor, partial curve, poor fit]"
COc1cc(NC(=O)c2ccc([N+](=O)[O-])cc2)c(OC)cc1NC(=O)CC(C)C,inactive: -0.761%,–
COc1ccc(NC(=S)Nc2ccc3nccnc3c2)cc1,–,"inconclusive: 26.9 µM [inhibitor, single point]"
O=C1N=c2ccccc2=C1c1sc(Nc2ccc(O)cc2)nc1O,–,"inconclusive: 9.53 µM [inhibitor, partial curve]"
Cc1ccc(-c2cc(C(=O)NCc3cnn(C)c3)c3cc(Br)ccc3n2)cc1,–,active: 1.07 µM
CC(=O)Nc1ccc(Cc2nc3ccccc3[nH]2)cc1,inactive: 2.23%,–
CCN(C(=O)Cn1cc(S(=O)(=O)Cc2ccccc2Cl)c2ccccc21)c1ccccc1,inactive: -2.16%,–
Cc1ccc(C)c(N2CCN(C(=O)Cn3c(-c4cccs4)cc4ccccc43)CC2)c1,inactive: -6.59%,–
Cc1ccc(N2CCN(C(=O)c3c4c(nc5ccccc35)C(=O)N(C3CCCCC3)C4)CC2)c(C)c1,inactive: 6.3%,–
COc1ccc(C(=O)Nc2nc3c(s2)CCc2cc(OC)ccc2-3)cc1,–,active: 7.57 µM
Cn1ccc(NC(=O)Nc2cccc([N+](=O)[O-])c2)n1,–,"inconclusive: 23.9 µM [inhibitor, partial curve, poor fit]"
O=C(CNC(=O)C1CCCCC1)OCC(=O)c1ccc(Cl)s1,–,"inconclusive: 23.9 µM [inhibitor, single point]"
NS(=O)(=O)c1ccc(NC(=S)N2CCN(C(=O)C3CCCO3)CC2)cc1 (configuration not stated),–,active: 4.78 µM
CCCc1cc(=O)[nH]c(SCC(=O)NN(c2ccccc2)c2ccccc2)n1,–,"inconclusive: 23.9 µM [inhibitor, partial curve, poor fit]"
CCOC(=O)Nc1nnc(-c2ccccc2OC)s1,–,"inconclusive: 9.53 µM [inhibitor, partial curve, poor fit]"
CCOCCOC(=O)c1ccc(NC(=O)C2COc3ccccc3O2)cc1 (configuration not stated),–,"inconclusive: 12 µM [inhibitor, partial curve, poor fit]"
COc1ccc(-c2csc(NC(=O)/C(N=Nc3ccccc3)=C(\C)O)n2)cc1,–,"inconclusive: 12 µM [inhibitor, partial curve, poor fit]"
Cc1cccc(NC(=O)/C=C/c2cccs2)n1,–,active: 4.78 µM
Cc1cccc(-c2noc(Cc3ccccc3)n2)c1,–,"inconclusive: 37.9 µM [inhibitor, single point]"
CCOC(=O)c1ccc(NC(=O)C2COc3ccccc3O2)cc1 (configuration not stated),–,"inconclusive: 37.9 µM [inhibitor, partial curve, poor fit]"
COc1ccc(NC(=O)c2cc(Br)c(Br)s2)cn1,–,"inconclusive: 26.9 µM [inhibitor, single point]"
O=C(NCc1ccc2c(c1)OCO2)Nc1ccc(F)cc1,–,"inconclusive: 10.7 µM [inhibitor, partial curve, poor fit]"
CC(C)(C)n1cnc2cc(NCc3ccccc3Cl)ccc21,–,active: 13.5 µM

Structure (SMILES),"activity change, negative = inhibition",Potency
COc1ccc(NC(=O)c2cc(-c3ccccc3Cl)no2)cc1,–,active: 9.53 µM
COc1ccccc1NC(=O)C(=O)NNC(=O)c1ccco1,–,"inconclusive: 37.9 µM [inhibitor, partial curve, poor fit]"
Nc1ccc(S(N)(=O)=O)cc1N,–,"inconclusive: 42.6 µM [inhibitor, partial curve, poor fit]"
O=C(Nc1cccnc1)c1cc(-c2ccc3c(c2)OCO3)on1,–,active: 0.478 µM
COc1ccc2nc(NC(=O)C3CCN(S(=O)(=O)c4cccs4)CC3)sc2c1,inactive: -8.03%,–
CCCCOC(=O)c1ccc(NC(C)=O)cc1,–,"inconclusive: 23.9 µM [inhibitor, partial curve, poor fit]"
O=C(O)CCC(=O)Nc1ccc(NC(=O)c2ccc(Cl)cc2Cl)c(Cl)c1,–,"inconclusive: 19 µM [inhibitor, partial curve]"
c1ccc(-c2nc(N3CCOCC3)cc(N3CCOCC3)n2)cc1,inactive: 0.47%,–
CCOC(=O)C1CCN(C(=O)CNC(=O)c2nn(-c3ccc(OC)cc3)c(=O)c3ccccc23)CC1,–,active: 2.69 µM
COc1ccc(-c2cc(=O)c3cc(OC)c(OC)cc3[nH]2)cc1,–,"inconclusive: 26.9 µM [inhibitor, single point]"
COc1ccc(-c2nc3sc(CCNC(=O)c4cccc(C(F)(F)F)c4)c(C)n3n2)cc1,–,active: 6.75 µM
CC(=O)C1CCCN(C(=O)c2ccc3oc(CCc4ccccc4)nc3c2)C1 (configuration not stated),–,"inconclusive: 23.9 µM [inhibitor, partial curve]"
CNc1nc(SC)n(C)c(=O)c1N=O,inactive: -1.63%,–
O=C(Nc1cccc(NC(=O)c2cccc(F)c2)c1)c1ccccc1,–,"inconclusive: 19 µM [inhibitor, partial curve, poor fit]"
Cc1ccccc1Cn1nnc2c(=O)[nH]c(C3CCN(C(=O)c4ccccc4)CC3)nc21,inactive: -0.384%,–
O=C(CNC(=O)c1cccs1)OCc1ccc(Cl)cc1,–,"inconclusive: 23.9 µM [inhibitor, single point]"
O=C(NCCCn1ccnc1)c1cn(-c2ccccc2)nc1-c1ccc(F)cc1,–,active: 10.7 µM
Cc1ccnc(NC(=O)c2ccc(Cl)c([N+](=O)[O-])c2)c1,–,"inconclusive: 23.9 µM [inhibitor, partial curve, poor fit]"
Cc1cc(NC(=O)c2ccc3c(c2)C(=O)N(C)C3=O)no1,–,"inconclusive: 4.26 µM [inhibitor, partial curve, poor fit]"
Cc1ccccc1NC(=O)c1csc2c1CCCC2,–,active: 19 µM
O=C(CSc1ncccc1-c1nc2ccccc2[nH]1)N1CCc2ccccc21,–,active: 7.57 µM
COc1ccc(NC(=O)CCCc2nnc3n(CCC(C)C)c(=O)c4sccc4n23)c(OC)c1,inactive: 1.17%,–
Cn1nc(C(C)(C)C)cc1C(=O)NNC(=O)c1ccc(C(F)(F)F)cc1,inactive: -13%,–
COCCNC(=O)c1ccc(-n2c(-c3ccccc3)cc3c2CCCCC3)cc1,–,"inconclusive: 30.1 µM [inhibitor, partial curve, poor fit]"
